Reference: PMC3308992
No constants are given. Whether binding was seen depends on the method and setting. In cells and extracts the contact can be indirect. Where a sequence is shown, tags or fusion partners need not be part of it.

Legend:
[1] = target: GST-fused CNOT8 (mouse), Q9D8X5; test: pull-down; E. coli extracts expressing GST-fused CNOT proteins mixed with 1–5 mg purified MBP fusion, 2 h at 4°C, then glutathione-sepharose 4FF; 25 mM HEPES-KOH pH 7.4, 150 mM NaCl, 0.1% NP-40; washed with binding buffer supplemented with 350 mM NaCl; anti-MBP western blotting; only the binder purified; settings: remark: other sources report otherwise
[2] = target: GST-fused CNOT7 (mouse), Q60809; test: as above; settings: remark: other sources report otherwise

B1: MBP-NANOS2, P60322 1-136 (protein)
chain: MDLPPFDMWRDYFNLSQVVMDIIQSRKQRQEGEVAEEPNSRPQEKSEQDLEGYPGCLPTICNFCKHNGESRHVYTSHQLKTPEGVVVCPILRHYVCPLCGATGDQAHTLKYCPLNSSQQSLYRRSGRNSAGRRVKR
In the case of B1, the binding [1] is reported as “no binding (tested: 1–5 mg of MBP-NANOS2)” and the binding [2] is reported as “no binding (tested: 1–5 mg of MBP-NANOS2)”.
